Data from paper PMC10157725.
These are yes or no findings as the source states them, for the method shown. Binding seen in cells or lysates may run through a third protein. Some results given as binding are weak or reduced against the parent protein; the word gives no strength.

By UniProt entry, the sequences of proteins in these tests, tags left out. Residues count along the entry.
UniProt Q8K1S3, residues 27-945: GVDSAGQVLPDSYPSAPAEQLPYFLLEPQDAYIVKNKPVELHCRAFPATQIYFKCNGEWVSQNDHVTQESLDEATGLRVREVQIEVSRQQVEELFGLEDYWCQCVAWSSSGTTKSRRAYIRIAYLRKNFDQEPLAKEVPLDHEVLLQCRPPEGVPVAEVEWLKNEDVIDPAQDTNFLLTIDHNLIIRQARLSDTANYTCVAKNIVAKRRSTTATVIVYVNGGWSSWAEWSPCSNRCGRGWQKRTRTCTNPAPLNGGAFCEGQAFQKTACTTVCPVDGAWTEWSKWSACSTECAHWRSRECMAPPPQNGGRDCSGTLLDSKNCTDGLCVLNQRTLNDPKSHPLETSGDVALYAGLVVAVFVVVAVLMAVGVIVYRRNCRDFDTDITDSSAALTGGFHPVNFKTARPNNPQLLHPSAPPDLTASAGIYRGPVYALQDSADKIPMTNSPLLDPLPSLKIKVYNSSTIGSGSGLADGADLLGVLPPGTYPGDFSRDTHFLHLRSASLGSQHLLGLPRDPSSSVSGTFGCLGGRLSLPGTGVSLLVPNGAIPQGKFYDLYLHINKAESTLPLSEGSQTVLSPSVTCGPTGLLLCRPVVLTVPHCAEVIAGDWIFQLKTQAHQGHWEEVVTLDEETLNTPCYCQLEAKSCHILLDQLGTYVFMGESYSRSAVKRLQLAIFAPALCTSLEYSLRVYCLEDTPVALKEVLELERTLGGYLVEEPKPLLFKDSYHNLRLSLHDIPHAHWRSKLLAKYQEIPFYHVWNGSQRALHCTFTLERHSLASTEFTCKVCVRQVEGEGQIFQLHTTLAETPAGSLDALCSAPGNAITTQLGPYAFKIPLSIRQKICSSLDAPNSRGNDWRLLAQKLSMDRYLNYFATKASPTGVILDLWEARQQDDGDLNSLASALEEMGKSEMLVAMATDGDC
UniProt P97798, residues 37-1492: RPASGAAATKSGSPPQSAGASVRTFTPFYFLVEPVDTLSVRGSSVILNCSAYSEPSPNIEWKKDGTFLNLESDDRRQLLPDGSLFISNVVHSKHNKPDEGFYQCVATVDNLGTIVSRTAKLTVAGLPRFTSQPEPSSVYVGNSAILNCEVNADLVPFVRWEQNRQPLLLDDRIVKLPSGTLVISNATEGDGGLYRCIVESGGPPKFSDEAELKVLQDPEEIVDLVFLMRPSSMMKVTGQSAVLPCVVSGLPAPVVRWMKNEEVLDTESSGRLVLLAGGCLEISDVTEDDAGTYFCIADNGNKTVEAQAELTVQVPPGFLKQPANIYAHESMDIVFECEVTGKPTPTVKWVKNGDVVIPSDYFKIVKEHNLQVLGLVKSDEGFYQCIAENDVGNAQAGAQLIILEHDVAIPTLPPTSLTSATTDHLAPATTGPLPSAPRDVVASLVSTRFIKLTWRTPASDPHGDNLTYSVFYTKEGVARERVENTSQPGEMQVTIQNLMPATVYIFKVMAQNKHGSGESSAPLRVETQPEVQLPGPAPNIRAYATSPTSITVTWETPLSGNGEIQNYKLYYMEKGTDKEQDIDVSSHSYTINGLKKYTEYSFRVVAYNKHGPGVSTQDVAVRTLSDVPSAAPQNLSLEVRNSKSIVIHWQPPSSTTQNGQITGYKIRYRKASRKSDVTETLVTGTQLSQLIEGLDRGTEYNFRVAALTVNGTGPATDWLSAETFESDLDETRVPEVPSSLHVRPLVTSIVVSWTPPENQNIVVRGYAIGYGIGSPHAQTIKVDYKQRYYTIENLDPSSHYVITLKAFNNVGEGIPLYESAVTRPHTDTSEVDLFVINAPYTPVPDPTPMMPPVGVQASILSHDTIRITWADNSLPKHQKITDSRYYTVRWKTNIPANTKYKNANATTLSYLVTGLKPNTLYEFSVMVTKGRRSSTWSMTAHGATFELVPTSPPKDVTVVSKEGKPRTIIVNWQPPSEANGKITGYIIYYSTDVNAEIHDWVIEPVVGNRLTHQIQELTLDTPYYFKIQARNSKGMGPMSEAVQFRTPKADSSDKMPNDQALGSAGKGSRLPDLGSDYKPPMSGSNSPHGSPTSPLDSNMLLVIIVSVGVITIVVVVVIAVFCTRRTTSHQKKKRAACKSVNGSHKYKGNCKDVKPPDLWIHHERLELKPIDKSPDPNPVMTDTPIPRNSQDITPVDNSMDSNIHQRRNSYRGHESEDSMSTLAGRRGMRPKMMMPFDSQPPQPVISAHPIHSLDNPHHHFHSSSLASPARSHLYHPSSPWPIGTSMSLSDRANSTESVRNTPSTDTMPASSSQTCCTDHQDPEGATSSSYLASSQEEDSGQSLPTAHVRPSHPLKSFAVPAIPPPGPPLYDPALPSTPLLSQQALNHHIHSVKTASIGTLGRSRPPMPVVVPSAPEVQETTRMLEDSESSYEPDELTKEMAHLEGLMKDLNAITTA
UniProt P70211, residues 26-1447: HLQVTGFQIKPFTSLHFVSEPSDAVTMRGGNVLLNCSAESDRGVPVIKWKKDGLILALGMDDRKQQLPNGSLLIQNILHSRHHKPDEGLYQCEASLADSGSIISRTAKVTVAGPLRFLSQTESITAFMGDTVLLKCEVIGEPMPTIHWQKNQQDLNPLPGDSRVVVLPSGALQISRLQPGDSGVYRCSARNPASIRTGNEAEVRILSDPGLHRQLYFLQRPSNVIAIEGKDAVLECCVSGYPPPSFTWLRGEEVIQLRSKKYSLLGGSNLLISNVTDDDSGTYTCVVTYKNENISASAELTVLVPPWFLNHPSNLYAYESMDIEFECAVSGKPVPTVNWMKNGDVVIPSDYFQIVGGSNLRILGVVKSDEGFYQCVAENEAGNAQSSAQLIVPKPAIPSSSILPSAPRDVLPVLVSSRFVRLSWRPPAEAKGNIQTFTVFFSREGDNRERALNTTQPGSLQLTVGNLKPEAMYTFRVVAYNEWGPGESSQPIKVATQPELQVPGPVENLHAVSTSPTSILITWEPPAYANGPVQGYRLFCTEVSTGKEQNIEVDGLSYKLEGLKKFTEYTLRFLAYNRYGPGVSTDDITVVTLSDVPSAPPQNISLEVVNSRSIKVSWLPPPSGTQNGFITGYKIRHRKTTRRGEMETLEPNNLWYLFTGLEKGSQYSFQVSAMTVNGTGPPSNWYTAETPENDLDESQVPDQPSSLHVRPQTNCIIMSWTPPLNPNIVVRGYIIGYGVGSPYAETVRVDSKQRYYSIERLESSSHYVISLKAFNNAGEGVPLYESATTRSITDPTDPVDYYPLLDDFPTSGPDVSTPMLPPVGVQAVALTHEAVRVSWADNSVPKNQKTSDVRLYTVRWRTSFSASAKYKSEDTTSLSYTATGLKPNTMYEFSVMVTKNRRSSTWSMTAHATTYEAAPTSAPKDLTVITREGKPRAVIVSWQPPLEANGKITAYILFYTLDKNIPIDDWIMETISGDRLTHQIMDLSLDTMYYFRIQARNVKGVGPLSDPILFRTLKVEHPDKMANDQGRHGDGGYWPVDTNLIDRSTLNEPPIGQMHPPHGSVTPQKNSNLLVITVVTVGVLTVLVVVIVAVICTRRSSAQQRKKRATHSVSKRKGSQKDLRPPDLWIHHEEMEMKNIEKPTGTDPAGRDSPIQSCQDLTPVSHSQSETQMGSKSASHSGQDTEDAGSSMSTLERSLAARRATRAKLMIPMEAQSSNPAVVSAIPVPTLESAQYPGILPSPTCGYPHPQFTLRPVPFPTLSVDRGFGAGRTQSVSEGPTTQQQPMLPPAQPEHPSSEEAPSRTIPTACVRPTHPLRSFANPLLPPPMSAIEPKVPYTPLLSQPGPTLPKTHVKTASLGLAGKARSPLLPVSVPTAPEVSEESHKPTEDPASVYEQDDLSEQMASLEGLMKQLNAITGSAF
UniProt P43121, residues 24-646: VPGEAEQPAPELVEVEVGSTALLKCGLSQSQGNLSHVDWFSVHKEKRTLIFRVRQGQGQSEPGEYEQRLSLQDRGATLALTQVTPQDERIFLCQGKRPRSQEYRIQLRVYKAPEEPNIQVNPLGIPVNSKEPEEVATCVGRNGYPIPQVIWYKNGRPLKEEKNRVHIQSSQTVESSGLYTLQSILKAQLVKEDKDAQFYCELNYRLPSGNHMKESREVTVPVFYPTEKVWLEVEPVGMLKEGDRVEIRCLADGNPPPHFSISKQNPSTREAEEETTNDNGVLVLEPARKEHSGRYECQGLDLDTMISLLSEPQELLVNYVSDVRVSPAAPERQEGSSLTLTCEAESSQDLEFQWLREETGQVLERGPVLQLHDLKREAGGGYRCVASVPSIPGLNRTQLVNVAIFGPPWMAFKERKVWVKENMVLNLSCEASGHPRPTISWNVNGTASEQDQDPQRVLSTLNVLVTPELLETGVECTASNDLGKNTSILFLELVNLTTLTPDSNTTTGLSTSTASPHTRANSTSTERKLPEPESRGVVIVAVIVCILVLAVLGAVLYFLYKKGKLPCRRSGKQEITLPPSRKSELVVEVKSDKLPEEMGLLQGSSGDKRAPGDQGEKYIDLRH
UniProt P63096: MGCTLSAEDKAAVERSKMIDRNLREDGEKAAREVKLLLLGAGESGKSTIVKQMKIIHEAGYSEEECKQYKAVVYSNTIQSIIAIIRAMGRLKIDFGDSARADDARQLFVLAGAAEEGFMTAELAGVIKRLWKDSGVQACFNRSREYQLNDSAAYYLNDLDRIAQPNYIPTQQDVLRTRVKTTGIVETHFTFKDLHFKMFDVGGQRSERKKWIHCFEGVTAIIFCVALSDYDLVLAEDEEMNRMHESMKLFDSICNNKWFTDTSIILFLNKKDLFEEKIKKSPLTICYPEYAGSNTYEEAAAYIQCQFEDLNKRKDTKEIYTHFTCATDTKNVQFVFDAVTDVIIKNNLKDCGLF
UniProt B2RSH2: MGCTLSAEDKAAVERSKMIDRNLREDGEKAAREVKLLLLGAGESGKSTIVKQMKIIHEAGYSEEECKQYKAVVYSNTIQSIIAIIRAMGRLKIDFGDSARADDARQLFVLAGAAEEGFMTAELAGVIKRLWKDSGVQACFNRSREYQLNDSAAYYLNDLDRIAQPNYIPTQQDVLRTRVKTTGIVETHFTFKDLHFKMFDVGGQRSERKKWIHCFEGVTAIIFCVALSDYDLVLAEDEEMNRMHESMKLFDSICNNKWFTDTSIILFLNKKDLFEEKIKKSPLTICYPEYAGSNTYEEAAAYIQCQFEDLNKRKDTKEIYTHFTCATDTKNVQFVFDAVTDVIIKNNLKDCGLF
UniProt Q9DC51: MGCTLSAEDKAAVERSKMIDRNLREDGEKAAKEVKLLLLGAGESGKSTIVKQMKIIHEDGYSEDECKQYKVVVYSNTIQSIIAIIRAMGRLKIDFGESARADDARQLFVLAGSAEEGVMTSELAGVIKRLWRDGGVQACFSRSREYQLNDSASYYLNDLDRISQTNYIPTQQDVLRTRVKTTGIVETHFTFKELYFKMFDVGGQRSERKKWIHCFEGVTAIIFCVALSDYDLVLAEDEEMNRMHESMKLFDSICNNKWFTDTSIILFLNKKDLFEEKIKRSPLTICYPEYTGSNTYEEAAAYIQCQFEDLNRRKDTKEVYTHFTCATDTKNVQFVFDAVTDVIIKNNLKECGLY
UniProt Q8IZJ1, residues 27-945: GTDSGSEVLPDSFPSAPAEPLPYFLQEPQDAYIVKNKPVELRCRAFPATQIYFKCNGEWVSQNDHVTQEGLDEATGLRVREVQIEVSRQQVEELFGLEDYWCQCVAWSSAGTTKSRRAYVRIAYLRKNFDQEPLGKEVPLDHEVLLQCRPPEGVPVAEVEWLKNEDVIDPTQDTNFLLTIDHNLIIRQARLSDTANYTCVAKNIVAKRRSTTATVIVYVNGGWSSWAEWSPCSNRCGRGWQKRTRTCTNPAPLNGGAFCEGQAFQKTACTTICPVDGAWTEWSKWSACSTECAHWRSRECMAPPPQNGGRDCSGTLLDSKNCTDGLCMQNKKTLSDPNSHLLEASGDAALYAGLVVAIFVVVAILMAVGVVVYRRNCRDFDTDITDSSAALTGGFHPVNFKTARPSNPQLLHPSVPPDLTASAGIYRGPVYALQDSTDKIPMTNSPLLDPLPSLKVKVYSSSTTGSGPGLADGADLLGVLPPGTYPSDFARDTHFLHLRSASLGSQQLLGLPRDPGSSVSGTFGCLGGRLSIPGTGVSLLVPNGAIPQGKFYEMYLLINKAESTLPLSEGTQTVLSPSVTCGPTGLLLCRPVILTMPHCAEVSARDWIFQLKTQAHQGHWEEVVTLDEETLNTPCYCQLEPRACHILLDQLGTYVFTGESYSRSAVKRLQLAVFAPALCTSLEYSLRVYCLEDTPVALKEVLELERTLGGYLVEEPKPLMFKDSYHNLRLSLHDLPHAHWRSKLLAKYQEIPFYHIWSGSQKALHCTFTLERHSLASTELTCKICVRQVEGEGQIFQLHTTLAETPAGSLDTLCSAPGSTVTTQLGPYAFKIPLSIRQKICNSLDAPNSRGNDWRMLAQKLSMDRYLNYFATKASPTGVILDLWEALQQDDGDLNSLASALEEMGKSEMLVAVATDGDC

T1: Grb2 associated binding protein 1 (Gab1), human (human (endogenous in HUVECs)) (UniProt Q13480)
T1 sequence: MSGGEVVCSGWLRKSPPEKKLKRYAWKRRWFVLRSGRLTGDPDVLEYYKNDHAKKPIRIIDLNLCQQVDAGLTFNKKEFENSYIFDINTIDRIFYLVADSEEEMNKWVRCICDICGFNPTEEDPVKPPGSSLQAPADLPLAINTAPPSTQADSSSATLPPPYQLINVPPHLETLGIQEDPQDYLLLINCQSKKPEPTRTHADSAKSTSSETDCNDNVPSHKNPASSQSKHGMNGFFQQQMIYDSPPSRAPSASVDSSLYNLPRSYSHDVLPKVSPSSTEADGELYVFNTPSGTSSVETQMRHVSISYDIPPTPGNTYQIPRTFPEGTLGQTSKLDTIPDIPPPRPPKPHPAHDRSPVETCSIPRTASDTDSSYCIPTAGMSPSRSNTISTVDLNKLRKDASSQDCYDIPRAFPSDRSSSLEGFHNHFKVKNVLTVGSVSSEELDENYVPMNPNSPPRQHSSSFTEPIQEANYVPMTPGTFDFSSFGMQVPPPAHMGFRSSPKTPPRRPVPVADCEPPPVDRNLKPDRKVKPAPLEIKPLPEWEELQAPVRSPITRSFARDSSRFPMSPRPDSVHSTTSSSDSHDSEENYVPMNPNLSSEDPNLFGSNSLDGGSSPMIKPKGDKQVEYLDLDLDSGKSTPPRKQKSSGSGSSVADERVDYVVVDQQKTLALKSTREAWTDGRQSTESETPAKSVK

T2: Grb2 associated binding protein 1 (Gab1), mouse (mouse (endogenous in MEFs)) (UniProt Q9QYY0)
T2 sequence: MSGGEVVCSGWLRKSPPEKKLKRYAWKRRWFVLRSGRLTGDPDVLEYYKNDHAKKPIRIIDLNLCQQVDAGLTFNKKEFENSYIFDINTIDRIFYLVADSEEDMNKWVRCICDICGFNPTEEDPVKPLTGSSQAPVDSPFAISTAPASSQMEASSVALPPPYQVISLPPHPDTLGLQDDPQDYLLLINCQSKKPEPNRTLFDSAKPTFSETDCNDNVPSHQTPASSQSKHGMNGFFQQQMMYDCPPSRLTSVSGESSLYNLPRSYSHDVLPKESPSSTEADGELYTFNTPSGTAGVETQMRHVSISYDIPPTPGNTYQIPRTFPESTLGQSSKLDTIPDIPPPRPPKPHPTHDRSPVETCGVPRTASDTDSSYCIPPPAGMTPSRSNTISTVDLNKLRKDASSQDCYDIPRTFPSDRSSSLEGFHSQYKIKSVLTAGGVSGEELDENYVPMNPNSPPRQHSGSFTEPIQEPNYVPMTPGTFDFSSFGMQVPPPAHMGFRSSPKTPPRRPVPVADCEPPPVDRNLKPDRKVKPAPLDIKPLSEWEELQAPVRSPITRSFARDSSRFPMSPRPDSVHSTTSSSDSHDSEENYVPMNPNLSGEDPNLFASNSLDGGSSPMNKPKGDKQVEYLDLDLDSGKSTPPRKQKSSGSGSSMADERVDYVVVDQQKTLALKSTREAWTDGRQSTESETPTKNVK

T3: CD146 (melanoma cell adhesion molecule, MCAM), mouse (mouse (endogenous in MEFs)) (UniProt Q8R2Y2)
T3 sequence: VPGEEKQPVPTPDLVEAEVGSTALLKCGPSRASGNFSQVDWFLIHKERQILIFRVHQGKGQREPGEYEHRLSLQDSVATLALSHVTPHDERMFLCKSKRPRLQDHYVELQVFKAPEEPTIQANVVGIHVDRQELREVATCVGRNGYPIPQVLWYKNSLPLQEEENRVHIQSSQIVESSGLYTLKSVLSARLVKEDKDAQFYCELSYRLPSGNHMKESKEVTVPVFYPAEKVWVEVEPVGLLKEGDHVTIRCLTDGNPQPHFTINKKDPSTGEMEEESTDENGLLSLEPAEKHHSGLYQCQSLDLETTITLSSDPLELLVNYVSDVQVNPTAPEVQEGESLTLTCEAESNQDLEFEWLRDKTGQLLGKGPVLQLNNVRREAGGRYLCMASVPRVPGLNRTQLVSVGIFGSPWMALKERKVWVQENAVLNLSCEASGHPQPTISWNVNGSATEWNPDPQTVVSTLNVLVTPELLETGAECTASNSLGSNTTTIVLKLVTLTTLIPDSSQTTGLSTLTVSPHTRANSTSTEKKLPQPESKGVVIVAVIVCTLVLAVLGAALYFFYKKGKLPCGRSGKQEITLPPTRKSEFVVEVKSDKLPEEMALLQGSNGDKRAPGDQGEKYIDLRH


Tests used:
[1] = biological target: T1, Grb2 associated binding protein 1 (Gab1), human (human (endogenous in HUVECs)); experiment: co-IP; primary HUVECs treated with Netrin-1 (25 ng/mL) for 5 min; Gab1-immunoprecipitated proteins tested by Western blotting (Figure 3A)
[2] = biological target: T2, Grb2 associated binding protein 1 (Gab1), mouse (mouse (endogenous in MEFs)); experiment: co-IP; WT MEFs after Netrin-1 treatment; Gab1 immunoprecipitated from total cellular lysates (antibody overnight at 4°C, Protein A/Sepharose beads), Western blotting (Figure S2A)
[3] = biological target: T2, Grb2 associated binding protein 1 (Gab1), mouse (mouse (endogenous in MEFs)); experiment: co-IP; WT MEFs treated with Netrin-1 (25 ng/mL) for 5 min; primary antibody added to total cellular lysates overnight at 4°C, Protein A/Sepharose beads, Western blotting; precipitating antibody not stated (Figure 2B)
[4] = biological target: Unc-5 Netrin receptor B (UNC5B), mouse (mouse (endogenous in MEFs)) (UniProt Q8K1S3); experiment: as above
[5] = biological target: Neogenin, mouse (mouse (endogenous in MEFs)) (UniProt P97798); experiment: as above
[6] = biological target: T3, CD146 (melanoma cell adhesion molecule, MCAM), mouse (mouse (endogenous in MEFs)); experiment: as above
[7] = biological target: DCC Netrin-1 receptor (DCC), mouse (mouse (endogenous in MEFs)) (UniProt P70211); experiment: as above

binding [1]	binding [2]	further results	Molecule
binds			CD146 (melanoma cell adhesion molecule, MCAM), human (from UniProt P43121 24-646) (receptor)
no binding			DCC Netrin-1 receptor (DCC), human (from UniProt P43146 26-1447)
	no binding		DCC Netrin-1 receptor (DCC), mouse (from UniProt P70211 26-1447)
binds			G protein subunit alpha i1 (Gαi1), human (from UniProt P63096 1-354)
	binds	binding [3]: binds; binding [4]: no binding; binding [5]: no binding; binding [6]: binds; binding [7]: no binding	G protein subunit alpha i1 (Gαi1), mouse (from UniProt B2RSH2 1-354)
binds			G protein subunit alpha i3 (Gαi3), human (from UniProt P08754 1-354)
	binds	binding [3]: binds; binding [4]: no binding; binding [5]: no binding; binding [6]: binds; binding [7]: no binding	G protein subunit alpha i3 (Gαi3), mouse (from UniProt Q9DC51 1-354)
	no binding		Neogenin, mouse (from UniProt P97798 37-1492) (receptor)
no binding			Unc-5 Netrin receptor B (UNC5B), human (from UniProt Q8IZJ1 27-945)
	no binding		Unc-5 Netrin receptor B (UNC5B), mouse (from UniProt Q8K1S3 27-945)
	binds	binding [3]: binds	CD146 (melanoma cell adhesion molecule, MCAM), mouse (receptor, UniProt Q8R2Y2 24-648) VPGEEKQPVPTPDLVEAEVGSTALLKCGPSRASGNFSQVDWFLIHKERQILIFRVHQGKGQREPGEYEHRLSLQDSVATLALSHVTPHDERMFLCKSKRPRLQDHYVELQVFKAPEEPTIQANVVGIHVDRQELREVATCVGRNGYPIPQVLWYKNSLPLQEEENRVHIQSSQIVESSGLYTLKSVLSARLVKEDKDAQFYCELSYRLPSGNHMKESKEVTVPVFYPAEKVWVEVEPVGLLKEGDHVTIRCLTDGNPQPHFTINKKDPSTGEMEEESTDENGLLSLEPAEKHHSGLYQCQSLDLETTITLSSDPLELLVNYVSDVQVNPTAPEVQEGESLTLTCEAESNQDLEFEWLRDKTGQLLGKGPVLQLNNVRREAGGRYLCMASVPRVPGLNRTQLVSVGIFGSPWMALKERKVWVQENAVLNLSCEASGHPQPTISWNVNGSATEWNPDPQTVVSTLNVLVTPELLETGAECTASNSLGSNTTTIVLKLVTLTTLIPDSSQTTGLSTLTVSPHTRANSTSTEKKLPQPESKGVVIVAVIVCTLVLAVLGAALYFFYKKGKLPCGRSGKQEITLPPTRKSEFVVEVKSDKLPEEMALLQGSNGDKRAPGDQGEKYIDLRH
no binding			Neogenin, human (receptor, UniProt Q92859 34-1461) ARSGSAPQSPGASIRTFTPFYFLVEPVDTLSVRGSSVILNCSAYSEPSPKIEWKKDGTFLNLVSDDRRQLLPDGSLFISNVVHSKHNKPDEGYYQCVATVESLGTIISRTAKLIVAGLPRFTSQPEPSSVYAGNNAILNCEVNADLVPFVRWEQNRQPLLLDDRVIKLPSGMLVISNATEGDGGLYRCVVESGGPPKYSDEVELKVLPDPEVISDLVFLKQPSPLVRVIGQDVVLPCVASGLPTPTIKWMKNEEALDTESSERLVLLAGGSLEISDVTEDDAGTYFCIADNGNETIEAQAELTVQAQPEFLKQPTNIYAHESMDIVFECEVTGKPTPTVKWVKNGDMVIPSDYFKIVKEHNLQVLGLVKSDEGFYQCIAENDVGNAQAGAQLIILEHAPATTGPLPSAPRDVVASLVSTRFIKLTWRTPASDPHGDNLTYSVFYTKEGIARERVENTSHPGEMQVTIQNLMPATVYIFRVMAQNKHGSGESSAPLRVETQPEVQLPGPAPNLRAYAASPTSITVTWETPVSGNGEIQNYKLYYMEKGTDKEQDVDVSSHSYTINGLKKYTEYSFRVVAYNKHGPGVSTPDVAVRTLSDVPSAAPQNLSLEVRNSKSIMIHWQPPAPATQNGQITGYKIRYRKASRKSDVTETLVSGTQLSQLIEGLDRGTEYNFRVAALTINGTGPATDWLSAETFESDLDETRVPEVPSSLHVRPLVTSIVVSWTPPENQNIVVRGYAIGYGIGSPHAQTIKVDYKQRYYTIENLDPSSHYVITLKAFNNVGEGIPLYESAVTRPHTDTSEVDLFVINAPYTPVPDPTPMMPPVGVQASILSHDTIRITWADNSLPKHQKITDSRYYTVRWKTNIPANTKYKNANATTLSYLVTGLKPNTLYEFSVMVTKGRRSSTWSMTAHGTTFELVPTSPPKDVTVVSKEGKPKTIIVNWQPPSEANGKITGYIIYYSTDVNAEIHDWVIEPVVGNRLTHQIQELTLDTPYYFKIQARNSKGMGPMSEAVQFRTPKADSSDKMPNDQASGSGGKGSRLPDLGSDYKPPMSGSNSPHGSPTSPLDSNMLLVIIVSVGVITIVVVVIIAVFCTRRTTSHQKKKRAACKSVNGSHKYKGNSKDVKPPDLWIHHERLELKPIDKSPDPNPIMTDTPIPRNSQDITPVDNSMDSNIHQRRNSYRGHESEDSMSTLAGRRGMRPKMMMPFDSQPPQPVISAHPIHSLDNPHHHFHSSSLASPARSHLYHPGSPWPIGTSMSLSDRANSTESVRNTPSTDTMPASSSQTCCTDHQDPEGATSSSYLASSQEEDSGQSLPTAHVRPSHPLKSFAVPAIPPPGPPTYDPALPSTPLLSQQALNHHIHSVKTASIGTLGRSRPPMPVVVPSAPEVQETTRMLEDSESSYEPDELTKEMAHLEGLMKDLNAITTA
